Test results: ChEMBL document CHEMBL1201862, “PubChem BioAssay data set” (2004)
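A five-concentration, 48-hour dose response in 96-well plates underlies each endpoint, interpolated linearly between surrounding concentrations. GI50: concentration for 50% inhibition of growth.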 Active and inactive are the calls of the source. Cut-off read from the data, not from the text of the source: active = GI50 up to about 1.1 µM and inactive = higher. Numbered stars: 1 amine (or outer) side, 2 acyl side, 3 side chain; on linkers, the order of the positions; unused ones are H or OH. Square brackets hold non-standard residues; d marks the D form. Peptide text beside a SMILES is read from it. * marks the point of attachment. X27 = CC(=O)N(C)SCC(N[*:1])C(=O)[*:2]; Fmoc = O=C(OCC1c2ccccc2-c2ccccc21)*; For = O=C*

Test system: NCI-H322M
Assay: NCI anticancer screen, dose series, 48 h

SMILES | GI50
Nc1ncnc2c1ncn2CCCCC(=O)O | inactive: > 100 µM
O=[N+]([O-])c1ccc2c(Nc3ccccc3-c3ccccc3Nc3c4ccccc4nc4cc([N+](=O)[O-])ccc34)c3ccccc3nc2c1 | inactive: 13.4 µM
CC(C)(C)NC(=O)[C@H]1CC[C@H]2[C@@H]3CC=C4NC(=O)CC[C@]4(C)[C@H]3CC[C@]12C | inactive: > 100 µM
CCOC(=O)C1=c2[nH]c3cccc4cccc(c43)n2C(=O)CC1c1ccccc1 (stereo not given) | inactive: > 100 µM
CC(=O)OC1COC(N2C(=O)C(=O)c3cc(Br)ccc32)C(OC(C)=O)C1OC(C)=O (stereo not given) | inactive: > 100 µM
COC(=O)/C=C/c1cnc2c(c1)oc(=O)n2CCc1ccccn1 | inactive: > 100 µM
CC(C)(C)c1cc(CCC(=O)Nc2ccc(Cl)cc2)nc(NC#N)n1 | inactive: > 100 µM
CC(C)(C)N1CC1CNC(=O)C(=O)NCC1CN1C(C)(C)C (stereo not given) | inactive: 5.19 µM
COc1ccc(N[S+]([O-])CCc2ccccc2)cc1 (stereo not given) | inactive: > 100 µM
COc1ccc(C(=O)C/C(=N/NC(N)=S)C(=O)Nc2ccccc2)cc1 | inactive: > 100 µM
CCOC(=O)N1C2C=C(C)C(C3C(C)C(=O)N31)N(C(=O)c1ccccc1)O2 (stereo not given) | inactive: > 100 µM
CCCC(=O)C(CC)/C(CCC(=O)N(Cc1ccccc1)Cc1ccccc1)=N/NC(=O)C[N+](C)(C)C (stereo not given) | inactive: > 100 µM
O=[N+]([O-])c1ccc(Sc2c3ccccc3nc3ccccc23)cc1 | inactive: > 100 µM
Cn1cc2ccccc2c1-c1nc(N)nc(F)n1 | inactive: > 100 µM
CC1=C(C(=O)CC(=O)C(=O)Nc2ccc(Cl)cc2C)Sc2ccccc2N1 | inactive: > 100 µM
Cc1cn2c(=O)c3ccccc3nc2s1 | inactive: > 100 µM
CC(C)C(C)C(O)C(O)C(C)C1CCC2C3COC(=O)C4CC(O)C(O)CC4(C)C3CCC12C (stereo not given) | inactive: > 100 µM
O=C(O)c1cc(/N=C/c2ccccc2O)cc(C(=O)O)c1 | inactive: > 100 µM
CC(C)N1CCCOC(c2ccc([N+](=O)[O-])cc2)O1 (stereo not given) | inactive: > 100 µM
CC1=CC(C)(C)Nc2ccc(CSc3ccccc3)cc21 | inactive: 28.1 µM
CCCCN/C(=N\C#N)N(Cc1ccccc1)Cc1ccccc1 | inactive: 48.8 µM
CN(C)CCNC(=O)c1cccc2c1nc(-c1ccccc1)c1ccccc12 | inactive: 4.92 µM
Cc1cc2nc3c(C#N)c(C)c(CCCl)c(Cl)n3c2cc1C | inactive: 5.82 µM

SMILES | GI50
CCOC(=O)/C(=C\c1c(C)[nH]c2ccccc12)P(=O)(OCC)OCC | inactive: > 100 µM
c1ccc2c[n+](CCCCCCCCCC[n+]3ccc4ccccc4c3)ccc2c1 | inactive: > 10 µM
C[N+](C)(C)c1ccc(C(N)C(=O)O)cc1 (stereo not given) | inactive: > 100 µM
CCOc1ccc(/N=N/c2ccc3oc(=O)c(/C(C)=N/NC(=O)CC(=O)Nc4cccc(OC)c4)cc3c2)cc1 | inactive: 16.5 µM
CCON=C1C(C)(C)C(C)(C)C(C)(C)C1(C)C | inactive: > 100 µM
C[C@@H]1S[C@H](c2c(F)cccc2Cl)n2c1nc1ccccc12 | inactive: 17.3 µM
C=C(Cl)C(C)(Cl)CCC(Br)C(C)(C)Cl (stereo not given) | inactive: 34 µM
COc1cc(Nc2c(C#N)[n+]([O-])c3ccccc3[n+]2[O-])cc(OC)c1OC | inactive: 32.9 µM
C[As](C)SCC(NC(=O)CCC(N)C(=O)O)C(=O)NCC(=O)O.c1ccncc1 (stereo not given) | inactive: 1.31 µM
O=C1/C(=C\c2ccc([N+](=O)[O-])cc2)CS(=O)(=O)C/C1=C/c1ccc([N+](=O)[O-])cc1 | inactive: 3 µM
COC(=O)C1(C(=O)OC)N=C(C)OC1C(C)C (stereo not given) | inactive: > 100 µM
CN1C(=O)C2(Cc3cn(C45CC67SSC(CO)(C(=O)N6C4Nc4ccccc45)N(C)C7=O)c4ccccc34)SSC1(CO)C(=O)N2C (stereo not given) | active: 0.405 µM
CC(=O)N(N=O)c1ccc(N(N=O)C(C)=O)cc1 | inactive: > 100 µM
CC(C)(C)OC(=O)N1CC(COS(C)(=O)=O)c2ccc(O)cc21 (stereo not given) | inactive: 2.87 µM
O=C1OCOC2(CCCC2)C1c1ccccc1 (stereo not given) | inactive: > 100 µM
CC1OC1C(=O)C1(O)C(C)C(O)C23OC2(C(O)c2c(O)cccc2C3=O)C1O (stereo not given) [CERVICARCIN] | active: 0.0667 µM
Nc1ccc(C(=O)NN2C(=O)C(Cl)C2c2ccccc2)cc1 (stereo not given) | inactive: > 100 µM
CC1=NN(c2cccc(Cl)c2)C2(SCC(=O)N2c2nc3ccccc3s2)/C1=C\c1ccc(N(C)C)cc1 (stereo not given) | inactive: > 100 µM
COc1cc(Cc2cc3c(c(C(=O)O)c2Br)OCO3)cc(OC)c1OC | inactive: > 100 µM
CO/N=C(/C(=O)OC)c1ccccc1COc1cccc(C(F)(F)F)c1 | inactive: 26.1 µM
O=C1CC(=O)NC(NN2C(=O)CSC2c2ccc(Cl)c(Cl)c2)=N1 (stereo not given) | inactive: > 100 µM
O=S(=O)(c1ccc(-c2nnc(-c3ccc(F)cc3)o2)cc1)c1ccc(-c2nnc(-c3ccc(F)cc3)o2)cc1 | inactive: > 100 µM
Nc1nc(OCc2ccccc2)c2nc[nH]c2n1 [6-O-BENZYLGUANINE] | inactive: 91 µM

SMILES | GI50
CN1N(c2ccccc2)C(=O)C2=NC=C(C(=O)c3ccccc3)C(=N)C21C (stereo not given) | inactive: > 100 µM
O=C1NNC2NC(=O)C3(NN2C1=O)c1ccccc1-c1ccccc13 (stereo not given) | inactive: > 100 µM
N#CC(Cl)CS(=O)(=O)c1ccccc1 (stereo not given) | inactive: 15.6 µM
CC(C)(C)OC(=O)/C=C/[C@@H](CCC(=O)/C=C/[C@H](/C=C\CCCC(=O)O)NC1(c2ccccc2)c2ccccc2-c2ccccc21)O[Si](C)(C)C(C)(C)C | inactive: 18.8 µM
CC(=O)N(C(C)=O)n1c(Cc2ccc(Cl)cc2)nn(C(C)=O)c1=O | inactive: > 100 µM
CC(C)(C)OC(=O)n1c(Cl)c(C=O)c2ccccc21 | inactive: 19.8 µM
COc1ccc2nc3cc(Cl)ccc3c(NCCCCCC(=O)NC(COc3cnc4c(ccc5cccnc54)c3)COc3cnc4c(ccc5cccnc54)c3)c2c1 | inactive: 18.6 µM
O=C(C#Cc1ccccc1)Nc1ccccc1CC(c1c[nH]c2ccccc12)c1c[nH]c2ccccc12 | inactive: 42.8 µM
Nc1ccc(S(=O)(=O)c2ccc(NCN3C(=O)NC(=O)C(=O)C3=O)cc2)cc1 [ALLANTODAPSONE] | inactive: > 100 µM
O=[N+]([O-])c1ccc(C2=Nn3cnnc3SC2)o1 | inactive: 20 µM
C#CC[N+](CCO)(CCO)CCCCCCCCCCCCCCCCCC | inactive: 14.6 µM
CC(C)C(=O)/C=C/c1c(Cl)cccc1Cl | inactive: 5.37 µM
COc1cc2c[n+](C)c3c4cc(OC)c(OC)cc4c(OCc4ccccc4)cc3c2cc1OC | inactive: 2.81 µM
Cc1cc(=O)oc2c(CNC(Cc3ccccc3)C(=O)O)c(O)ccc12 (stereo not given) | inactive: > 100 µM
CC1CC/C(=C\c2ccc(F)cc2)C2=C1C(c1ccc(F)cc1)n1c(s/c(=C\c3ccc(Cl)cc3)c1=O)=N2 (stereo not given) | inactive: > 100 µM
COc1cc(S(=O)(=O)Nc2ccc(-c3csc(/N=C\c4ccccc4O)n3)cc2)ccc1Cl | inactive: 80 µM
COc1cccc2c1CCc1ccccc1CC2=O | inactive: > 100 µM
[O-][n+]1c2ccccc2[n+]([O-])c2ccccc21 | inactive: 18.6 µM
COc1ccc(N(CN2C(=O)CCC2C(=O)O)C(C)=O)cc1 (stereo not given) | inactive: > 100 µM
CN(C(=O)CCC(=O)O)c1ccccc1C(=O)O | inactive: > 100 µM
Cc1cnoc1/N=C1\C=C(Nc2oncc2C)C(=O)c2ccccc21 | inactive: > 100 µM
O=C(O)c1nc2ccccc2nc1Nc1ccc(F)cc1 | inactive: 34.8 µM
CCCCCc1c(CCCC)c(=O)[nH]c2cc(CNCC(OC)OC)ccc12 | inactive: 13.9 µM

SMILES | GI50
N=c1oc2c(O)c(O)ccc2cc1C(N)=O | inactive: 47.8 µM
Cc1nc(C(N)=S)sc1C(=O)/C=C/c1c(O)ccc2ccccc12 | inactive: > 68.9 µM
CCN(CC)C(=S)SS(=O)(=O)c1ccccc1[N+](=O)[O-] | inactive: > 100 µM
CC1=CC(=O)CC2(C)CCC(C(C)CC(=O)CC(C)C)CC12 (stereo not given) | inactive: 57.3 µM
O=C(O)[C@@H]1C[C@@H](O)CN1 | inactive: > 100 µM
COc1cccc(-c2c(-c3ccccc3)[nH]c(C)c2C(=O)ONC(=O)c2ccccc2)c1 | inactive: 11.2 µM
O=[N+]([O-])c1ccc(O)c(/C=N/CC2CCCN3CCCCC23)c1 (stereo not given) | inactive: 64.9 µM
CC(C)=C[C@@H]1C[C@H](C)[C@H]2CC[C@H](C)[C@H]3C(=O)C(O)=C(C)C(=O)[C@]123 | inactive: > 100 µM
O=C(O)C1=CN(c2ccncc2)C(c2ccco2)=CC1c1ccccc1[N+](=O)[O-] (stereo not given) | inactive: 16.7 µM
CCc1ccccc1NC(=O)c1cccc([N+](=O)[O-])c1O | inactive: 24.5 µM
CNC(=S)Nc1sc2c(c1C#N)CCCC2 | inactive: > 75 µM
CC(=O)N(C)SCC(NC(=O)C(Cc1ccccc1)NC(=O)OCC1c2ccccc2-c2ccccc21)C(=O)NC(Cc1ccccc1)C(=O)NC(Cc1cn(C=O)c2ccccc12)C(=O)NC(CCCCNC(=O)OCC1c2ccccc2-c2ccccc21)C(=O)NC(C(=O)NC(CSN(C)C(C)=O)C(=O)NC(C(N)=O)C(C)O)C(C)O (stereo not given) (Fmoc-F[X27]FW(For)K(Fmoc)T[X27]T-NH2; configuration not given here) | inactive: > 100 µM
CC1C(=O)N(c2ccccc2)NC12CCCc1ccccc12 (stereo not given) | inactive: > 100 µM
CC1=C(C)SC(=C2Sc3c(n(C)c(=O)[nH]c3=O)S2)S1 | inactive: > 100 µM
CCOC(=O)C(=O)C(/C(=N/N(C)C)C(=O)Nc1ccc(C)cc1C)c1nc2ccccc2nc1O (stereo not given) | inactive: > 100 µM
CC1(C)CC(=O)C(C(c2cccc(O)c2O)C2C(=O)CC(C)(C)CC2=O)C(=O)C1 | inactive: > 100 µM
COC1=CC(=O)C[C@@H](C)[C@]12Oc1c(Cl)c(OC)cc(OC)c1C2=O [GRISEOFULVIN] | inactive: 47.4 µM
CN(C)CCNc1ccc2c(=O)n(CCN(C)C)c(=O)n3c4ccc([N+](=O)[O-])cc4c(=O)c1c23 | active: 0.31 µM
O=C(NN1C(=O)CS(=O)(=O)C1c1cccc(F)c1)c1ccncc1 (stereo not given) | inactive: > 100 µM
CC(NC(=O)C1(N)CCCC1)C(=O)O (stereo not given) | inactive: > 100 µM
CNC(=O)C(C)NC(=O)C(Cc1ccccc1)NC(=O)c1ccccc1 (stereo not given) | inactive: > 100 µM
